Assay results published in PubChem BioAssay AID902 (National Center for Advancing Translational Sciences (NCATS), 2007).
The whole screen tested about 130,000 compounds, of which about 1,900 (1.5%) were called active. Inconclusive results, whose numbers are uncertain, are shown with a selection of clear calls. Calls come from the whole dose curve; as a rule, active = well fitted cell-killing curve with a large enough effect; inconclusive = small, poorly fitted or top-dose-only effect; inactive = no such curve, though single readings can be large or run the other way. Where the call is inconclusive, the potency comes from a doubtful curve fit.

Experiment: qHTS Screen for Compounds that Selectively Target Cancer Cells with p53 Mutations: Cytotoxicity of p53ts Cells at the Nonpermissive Temperature; note: nearly all actives have a fitted effect of over 55% in size
Settings: H1299-p53A138V viability at 39C, ATP luminescence, 24 h; activity change, negative = cell killing: at 46.1 µM (top of the series)
% is set by controls: 0 for no effect and ±100 for the full control effect; potency is the fitted concentration of half-maximal effect; tags give direction and shape of the fitted curve.

Row | Structure (SMILES) | activity change, negative = cell killing | Potency
1 | CC1CCc2c(sc(NC(=O)C3c4ccccc4Oc4ccccc43)c2C#N)C1 (configuration not stated) | inactive: 2.83% | –
2 | CC(=O)Nc1ccc(-c2nc3c(C)cccc3[nH]2)cc1 | – | inconclusive: 7.94 µM [cytotoxic, partial curve]
3 | Cc1ccc(Cl)cc1N1CCN(C(=O)Cn2cnc3sc(C)c(S(=O)(=O)N4CCC(C)CC4)c3c2=O)CC1 | – | inconclusive: 0.0501 µM [cytotoxic, full curve, poor fit]
4 | Cc1ccc2c(c1)c1c(n2CC(O)Cn2c(C)nc3ccccc32)/C(=N\O)CCC1 (configuration not stated) | – | inconclusive: 31.6 µM [cytotoxic, single point]
5 | COC(=O)NCC(c1cccnc1)N1CCN(c2ccc(F)cc2)CC1 (configuration not stated) | – | inconclusive: 1.41 µM [cytotoxic, partial curve]
6 | Cc1cc(NC(=O)COC(=O)C(Nc2ccc(C(F)(F)F)cc2Cl)C(C)C)no1 (configuration not stated) | – | inconclusive: 12.6 µM [cytotoxic, single point]
7 | c1ccc(CCc2nn3c(Cc4ccccc4)nnc3s2)cc1 | inactive: 20.5% | –
8 | Cc1ccc(CNC(=O)CCCn2c(=O)c3ccccc3n(CC(=O)Nc3ccc(C)c(C)c3)c2=O)cc1 | – | inconclusive: 25.1 µM [cytotoxic, single point]
9 | Cc1ccc(-n2ncc3c(Nc4cccc(C)c4C)ncnc32)cc1 | – | inconclusive: 12.6 µM [cytotoxic, partial curve]
10 | CCOC(=O)c1c(C)c(-c2ccccc2)n(CC(=O)Nc2cc(C)ccc2OC)c1C | – | inconclusive: 1 µM [cytotoxic, partial curve]
11 | CCc1cccc(-n2nnc(-c3nsc(NC(=O)c4cccs4)n3)c2C)c1 | – | active: 10 µM
12 | CCCC(c1cc(C(C)(C)C)c(O)cc1C)c1cc(C(C)(C)C)c(O)cc1C | – | inconclusive: 5.01 µM [cytotoxic, single point]
13 | COc1ccccc1N1CCN(CCCNC(=O)c2cnn(-c3cccc(Cl)c3)c2C2CCN(C(=O)OC(C)(C)C)CC2)CC1 | – | inconclusive: 15.8 µM [cytotoxic, single point]
14 | Cc1nnc(SCc2ccc(Cl)cc2Cl)[nH]c1=O | inactive: -12.7% | –
15 | COc1ccc(-c2nc(-c3ccccc3)c(-c3ccc(O)cc3)[nH]2)cc1 | – | inconclusive: 31.6 µM [cytotoxic, single point]
16 | CC1=CC(C)(C)Nc2ccc(OC(=O)c3ccco3)cc21 | – | inconclusive: 31.6 µM [cytotoxic, single point]
17 | N[C@@H](CSS(=O)(=O)O)C(=O)O | inactive: -9.96% | –
18 | Cc1ccccc1-c1nc(CS(=O)(=O)CC(=O)NCc2cccc(Cl)c2)c(C)o1 | – | inconclusive: 31.6 µM [cytotoxic, single point]
19 | CCCCN1CCCc2cc(CN(CCCN3CCOCC3)C(=O)Nc3ccc(OCC)cc3)ccc21 | – | inconclusive: 12.6 µM [cytotoxic, partial curve, poor fit]
20 | Cc1ccc(C(=O)Nc2nc3ccccc3s2)s1 | – | inconclusive: 12.6 µM [cytotoxic, single point]
21 | COc1cc(C)c2c(=O)cc(-c3ccccc3)oc2c1 | – | inconclusive: 15.8 µM [cytotoxic, single point]
22 | C=CCSc1nncn1/N=C/c1ccc(OC)cc1 | – | inconclusive: 31.6 µM [cytotoxic, single point]
23 | COc1cccc(-n2ccnc2SCC(=O)Nc2ccccc2)c1 | inactive: 5.87% | –

Row | Structure (SMILES) | activity change, negative = cell killing | Potency
24 | Oc1ccc(CN2CCCc3ccccc32)c2cccnc12 | – | inconclusive: 25.1 µM [cytotoxic, single point]
25 | Cc1ccc2sc(-c3ccc(NC(=O)CCN4C(=O)c5ccccc5C4=O)cc3)nc2c1 | inactive: -0.002% | –
26 | CCOc1ccc(S(=O)(=O)N2CCN(c3c(C)cccc3C)CC2)c2ccccc12 | inactive: 6.74% | –
27 | COc1ccc(-c2nc(SCC(=O)Nc3ccc4c(c3)OCO4)c(-c3ccc(OC)cc3)[nH]2)cc1 | – | inconclusive: 12.6 µM [cytotoxic, single point]
28 | COc1cc(C(=O)Nc2ccc3oc(-c4ccccc4)nc3c2)cc(OC)c1OC | – | active: 12.6 µM
29 | CC(=O)C(C(C)=O)c1c(Cl)c(O)c(O)c2c(C(=O)c3ccccc3)coc12 | – | inconclusive: 31.6 µM [cytotoxic, single point]
30 | CCCOc1ccc(-c2nn(-c3ccccc3)cc2C2NC(=O)NC(C)=C2C(=O)OC)cc1C (configuration not stated) | – | inconclusive: 3.98 µM [cytotoxic, partial curve]
31 | Cc1ccc2c(c1)CCCN2C(=O)Nc1ccc2c(c1)OCO2 | – | inconclusive: 20 µM [cytotoxic, single point]
32 | CCOc1ccccc1NC(=O)Nc1nnc(N2CCCCCC2)s1 | – | inconclusive: 6.31 µM [cytotoxic, partial curve]
33 | O=C(Nc1ccccc1)c1cc2ccccc2o1 | – | inconclusive: 31.6 µM [cytotoxic, single point]
34 | Cc1ccc(-c2cc(C(=O)NCCc3ccccc3)c3c(-c4ccc(C)cc4)[nH]nc3n2)cc1 | – | inconclusive: 20 µM [cytotoxic, partial curve, poor fit]
35 | COc1ccc(S(=O)(=O)Nc2cc3c(cc2NCc2ccccc2)n(C)c(=O)n3C)cc1OC | – | inconclusive: 10 µM [cytotoxic, partial curve, poor fit]
36 | Cc1ccc(NC(=O)CSc2nc3c([nH]c4ccccc43)c(=O)n2-c2ccccc2)c(C)c1 | – | inconclusive: 6.31 µM [cytotoxic, full curve, poor fit]
37 | CCCCN1CCc2nc(N3CCN(c4ncccn4)CC3)ncc2C1 | – | inconclusive: 31.6 µM [cytotoxic, single point]
38 | CC(C)c1ccc(S(=O)(=O)Nc2ccc3oc4c(c3c2)C(=O)CC(C)(C)C4)cc1 | – | inconclusive: 10 µM [cytotoxic, single point]
39 | CN(C)C(=O)c1ccc(-c2nc(N(C)C)c3ccccc3n2)cc1 | – | inconclusive: 31.6 µM [cytotoxic, single point]
40 | CCCNC(=O)c1cc(-c2ccco2)on1 | – | inconclusive: 20 µM [cytotoxic, partial curve, poor fit]
41 | Cc1ccccc1Nc1c(-c2ccc(N3CCOCC3)cc2)nc2ncccn12 | – | active: 3.98 µM
42 | COC(=O)c1scc(-c2ccccc2)c1S(=O)(=O)Nc1cccc(C)c1C | – | inconclusive: 1 µM [cytotoxic, full curve, poor fit]
43 | COC(=O)c1ccc(/C=C/c2ccc3cccc(OC(C)=O)c3n2)cc1 | – | inconclusive: 20 µM [cytotoxic, single point]
44 | CCc1ccc(NC(=O)N2CC(C)Oc3ccc(C)cc32)cc1 (configuration not stated) | – | inconclusive: 12.6 µM [cytotoxic, single point]
45 | CC(C)(C)OC(=O)N1CCC(c2c(C(=O)NCCN3CCC(Cc4ccccc4)CC3)cnn2-c2ccccc2)CC1 | – | active: 31.6 µM
46 | COCCCNc1ncnc2c1cnn2-c1ccc(F)cc1 | – | active: 10 µM

Row | Structure (SMILES) | activity change, negative = cell killing | Potency
47 | COc1cc2ccccc2cc1C(=O)Nc1ccc2oc(-c3cccc(Cl)c3Cl)nc2c1 | – | inconclusive: 3.16 µM [cytotoxic, single point]
48 | COc1ccc(NC(=O)c2nc3nc(C)cc(C(F)F)n3n2)c(C)c1 | inactive: 15.9% | –
49 | COc1ccc(-n2nc3c(N4CCCC(C(=O)NCCc5ccc(C)cc5)C4)nnc(C)c3c2C)cc1 (configuration not stated) | – | inconclusive: 10 µM [cytotoxic, single point]
50 | COC(=O)c1cc(CC(=O)c2ccc(O)cc2O)c(C)o1 | inactive: -4.97% | –
51 | COc1ccc(-n2cc(-c3ccccc3)nc2SCC(=O)Nc2ccccc2)cc1Cl | – | inconclusive: 6.31 µM [cytotoxic, partial curve]
52 | O=C(c1ccc2c(c1)N(Cc1ccccc1)C(=O)c1ccccc1S2(=O)=O)N1CCN(c2ccccn2)CC1 | inactive: -22.6% | –
53 | COCCn1c(=O)c(-c2ccc(Cl)cc2)nc2cnc(N3CCNCC3)nc21 | – | inconclusive: 20 µM [cytotoxic, single point]
54 | CCOc1ccccc1CNC(=O)c1cc(-c2ccc(OC)cc2)nc2ccc(C(C)C)cc12 | – | inconclusive: 31.6 µM [cytotoxic, single point]
55 | O=C(Nc1ccc(F)c(Cl)c1)c1cc(S(=O)(=O)N2CCCc3ccccc32)ccc1F | inactive: -12.3% | –
56 | Cn1c(CNc2nc3ccccc3n2C)nc2ccccc21 | inactive: 0.825% | –
57 | N#CCSc1nc2cc(C(=O)N3CCCC3)ccc2c(=O)n1Cc1ccccc1 | inactive: -25.7% | –
58 | COc1ccc(C(=O)N2CCc3cc(OC)c(OC)cc3C2COc2ccc3c(C)cc(=O)oc3c2)c(OC)c1 (configuration not stated) | – | inconclusive: 25.1 µM [cytotoxic, single point]
59 | Cc1ccc(N2C(=O)c3[nH]nc(-c4ccc(Cl)cc4)c3C2c2ccc(F)cc2)cc1 (configuration not stated) | – | inconclusive: 12.6 µM [cytotoxic, single point]
60 | O=C(O)[C@H]([C@H]1NCCS1)N1C(=O)c2ccccc2C1=O | inactive: 7.48% [at 9.22 µM] | –
61 | CCOc1ccc(/C=C\C(C)=N\O)cc1 | – | inconclusive: 12.6 µM [cytotoxic, partial curve]
62 | Cc1c(Cl)cccc1NC(=O)CSc1ncccc1C(=O)Oc1ccccc1Cl | – | inconclusive: 12.6 µM [cytotoxic, partial curve]
63 | COc1cc(OC)cc(C(=O)NCC(c2cccs2)S(=O)(=O)c2ccc(F)c(C)c2)c1 (configuration not stated) | inactive: -15.1% | –
64 | CC(C)c1ccc(C2N=C(N)Nc3nc4ccccc4n32)cc1 (configuration not stated) | – | active: 10 µM
65 | COc1ccc2[nH]cc(CCNc3ccnc(-c4ccccc4Cl)n3)c2c1 | inactive: -11.1% | –
66 | O=C(Nc1nc2ccc(F)cc2s1)c1nc(S(=O)(=O)Cc2ccccc2)ncc1Cl | – | inconclusive: 15.8 µM [cytotoxic, single point]
67 | Nc1ccc2ncccc2c1 | – | active: 3.16 µM
